From the supplement of paper PMC3724861
This is one part of the list.

Tested on: T1, Caupolican (Caup) homeodomain DNA-binding domain
T1 sequence: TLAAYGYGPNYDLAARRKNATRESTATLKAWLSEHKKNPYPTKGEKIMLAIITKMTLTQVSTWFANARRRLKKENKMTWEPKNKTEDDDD
Test: PBM E-score (8-mer, recovered from the published 9-mer minima) (E-score (dimensionless, -0.5 to 0.5)); Drosophila protein; higher = stronger relative binding preference, active = 0.31 or more
Outline: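 Caup's homeodomain DNA-binding domain (residues 214-303) was made by in vitro transcription and translation and applied at 100 nM to custom-designed protein binding microarrays. Each value is an enrichment score that gives relative binding preference for a short DNA word, with higher meaning stronger. The 8-mer values were recovered from published 9-mer scores, each of which was the minimum of its two constituent 8-mer scores. A cutoff of 0.31 marks candidate sites.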

PBM E-score, ≥ 0.0345:
ATCCTCGA

PBM E-score, ≥ -0.0646:
ACTGGCGA

PBM E-score, ≥ -0.0837:
AGAAGCCT

PBM E-score, ≥ 0.198:
ATTAATCA

PBM E-score, ≥ 0.205:
ACTAATCA

PBM E-score, ≥ 0.186:
ACATTCCA

PBM E-score, ≥ 0.0422:
AGGTCAGC

PBM E-score, ≥ -0.0741:
ACCTGCCA

PBM E-score, active:
TACACGAA 0.371
AATGTATC 0.314
AACATGAG 0.351
TCATGACA 0.313
CAATGTAA 0.312

PBM E-score, inactive:
AGCCTGCA -0.0518
CTATATAG 0.0101
GTTGGATA 0.0774
ATAGGGTG -0.0464
ATTATCAA 0.159
CCGCAACG -0.123
AACTGATC 0.0687
CCATCCAC -0.00804
TCATATCA 0.14
ATCGCTCC -0.136
TCAAGAGA 0.0534
ACTCTTGG -0.044
CTCCGACA 0.119
AGGCTCTA -0.12
CCCATCGG -0.172
CAGCCCGG -0.261
GCGCGTAC -0.0837
CATAAGGA 0.00552
AGTCATCC -0.0516
CCCGGAAA -0.0542
ACTAGCGC -0.134
AAAGAGAG -0.0837
CAGGATCG -0.0491
ACACCGAG 0.108
CCTGGAAG -0.15
CTGCCGAA -0.181
AATGGAAG -0.0577
CACTACCC -0.0519
ACGACATC 0.26
CAATTTCG 0.0243
CGGGAGAA -0.0618
TACGGGAA -0.0264
AGGAGTTA 0.0649
ACCACCCG -0.145
AACGTATG 0.138
CAAGAGGG -0.0577
ATGGATGA 0.0411
ATCCGTTG 0.105
GACCACCC -0.177
CCTCATGA -0.0319
TCACATCA 0.091
ACCTAGTC -0.0579
AGGGCTAT -0.117
GACTATGC 0.121
ATACGATA 0.186
GCCTGGCC -0.292
CCGGAGCC -0.227
ACCTTGAA 0.0522
CCTATCCA -0.0354
ACGTAAGT 0.0363
AAGCCTTG -0.0495
AGGGATGC -0.127
ACGAACTG 0.05
AAATTACG 0.0367
ATTTGTCG 0.169
ACTATGAC 0.113
AGGCACAT 0.00079
CACACACA 0.0556
AGAAGAAC 0.0735
CGCATGAA -0.0812
ATGGCAAA -0.0401
CTACACGA 0.295
AAACATCC 0.258
CTAACTAG 0.0978
CCCATCCC -0.212
CAGCAGAA -0.00767
GCGTCGAA -0.0998
CCTGCGAA -0.0125
AATGTCTG 0.142
AATCGAGG -0.117
CGCGATGA 0.0185
CTCCACAG -0.16
TCCCGTCA -0.0662
CCTGAAGA -0.118
GAACGACC -0.0823
AGCAGGGA -0.105
AAAACCGA -0.0262
ATGTACCC 0.263
ACAACCAG 0.249
TAAAACGA 0.0306
CAAGTGAG 0.0208
AATAGAGT -0.0101
TGCTTCAA 0.047
GGCTGCAA -0.119
CCACAGAG -0.0103
TCTATGAA 0.047
CCAAAACA 0.155
ATCCCAGA -0.124
ATGGTCAC -0.0348
AACCGGAC -0.0436
ACGGAAAA -0.0174
CGCGAGAG -0.201
CGTTAAGA 0.0227
CTCACAAC 0.0395
TAATCGGA 0.0419
AGTCACAT 0.12
TGTGGTAA 0.156
GAGATAAA 0.0669
ACCTCAGA -0.0211
AATGGATC 0.052
GAGATCCC -0.151
ACCGGCCA -0.177
AGGCCGCC -0.301
ATAGAGGA -0.0659
ATGTAGCG 0.222
AGGCAGTG -0.0632
ACCTCTCG -0.169
GTGGATAA 0.044
GAGGTCGA -0.115
AGGCCTTG -0.121
AAACAACG 0.21
AGGCTGGC -0.29
CGGCCCGC -0.215
CGGTAGAG -0.101
CGGTACAA 0.234
AGAATAAC 0.118
AAAATATC 0.0847
ACCTGAAC 0.0824
GCTGATCC -0.0755
AGTCCATG 0.0703
ATTGCCGC -0.0938
ATGGAGGG -0.0785
GGCTCCCA -0.285
CAACCACC -0.0558
TCACCCAA 0.0547
GCCGTCGA -0.167
CGTTCTAA 0.0188
AAGATGGG -0.134
TATATCAA 0.133
CCCATGCG -0.134

PBM E-score, ≥ 0.0403:
ATTGCCGA
